Source: the supplement of paper PMC3334620
Whole data set: some 33,000 sequences, median “E-score (-0.5 to 0.5)” near -0.035, cut for the highest 2% near 0.35. The list shows a part of the results.

target: T1, Pdr3 (UniProt P33200); assay: PBM E-score (8-mer binding enrichment) (E-score (-0.5 to 0.5)); higher = stronger / more preferred TF binding; most listed sequences are background and not binding sites; conditions: protein concentration: 200 nM; construct: GST-full length
T1 sequence: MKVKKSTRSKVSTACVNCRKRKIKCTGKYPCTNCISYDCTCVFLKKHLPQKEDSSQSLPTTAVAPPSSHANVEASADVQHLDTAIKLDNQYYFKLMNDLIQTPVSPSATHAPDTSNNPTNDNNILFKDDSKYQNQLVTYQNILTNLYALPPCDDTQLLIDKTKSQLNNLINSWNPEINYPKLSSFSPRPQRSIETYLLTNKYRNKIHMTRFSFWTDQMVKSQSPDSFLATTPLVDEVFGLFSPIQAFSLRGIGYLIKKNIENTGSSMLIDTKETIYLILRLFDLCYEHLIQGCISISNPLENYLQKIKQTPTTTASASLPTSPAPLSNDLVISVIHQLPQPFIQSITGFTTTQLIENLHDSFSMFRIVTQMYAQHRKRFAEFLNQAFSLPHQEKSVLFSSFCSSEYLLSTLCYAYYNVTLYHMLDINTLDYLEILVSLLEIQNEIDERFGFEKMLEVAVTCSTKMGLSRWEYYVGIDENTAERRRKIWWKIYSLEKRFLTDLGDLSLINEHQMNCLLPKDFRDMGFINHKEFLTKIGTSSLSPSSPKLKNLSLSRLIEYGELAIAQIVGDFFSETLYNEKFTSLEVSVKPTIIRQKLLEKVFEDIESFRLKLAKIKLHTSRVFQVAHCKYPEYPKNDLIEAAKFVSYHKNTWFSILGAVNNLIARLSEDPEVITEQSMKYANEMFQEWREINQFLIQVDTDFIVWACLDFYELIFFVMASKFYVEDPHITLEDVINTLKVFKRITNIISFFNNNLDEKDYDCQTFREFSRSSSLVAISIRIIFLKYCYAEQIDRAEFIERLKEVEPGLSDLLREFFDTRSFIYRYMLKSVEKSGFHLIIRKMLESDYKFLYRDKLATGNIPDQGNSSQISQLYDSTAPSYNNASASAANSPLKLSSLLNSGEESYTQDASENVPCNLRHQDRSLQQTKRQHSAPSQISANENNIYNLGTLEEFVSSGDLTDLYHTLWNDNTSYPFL
Procedure, shortened: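 Each ungapped eight-base word and its reverse complement, pooled, received an E-score from the Universal PBM Analysis Suite. Underlying scans, normalised with masliner, recorded fluorescent anti-GST bound to GST-tagged yeast transcription factors. These were applied at about 100-200 nM to universal all-10-mer Agilent arrays double-stranded by primer extension.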

Compared with AATCAACC, AGAAGTGC is lower in “PBM E-score” value: 0.042 for the first, -0.137 for the second.

Going from AGCAAGCT to GACTAAGA, the “PBM E-score” value rises from -0.247 to -0.157.

Going from AAGACGTA to AAGCGGAT, the “PBM E-score” value rises from -0.0491 to 0.309.

Going from ATGAGGTA to TCCGCACA, the “PBM E-score” value rises from -0.18 to 0.259.

Compared with ATAAAAAA, CGTGGCGA is higher in “PBM E-score” value: 0.0103 for the first, 0.0774 for the second.

Compared with GGGTACTA, AACGTTAG is lower in “PBM E-score” value: 0.0336 for the first, -0.0863 for the second.

Compared with CACTCCTA, CTAAATTC is higher in “PBM E-score” value: -0.112 for the first, 0.0203 for the second.

First: CGGTTCAC
Second: CTTCTAAA
The “PBM E-score” value of the first is higher: -0.038 for the first, -0.25 for the second.

Compared with TAGACTGA, CGATCCAG is higher in “PBM E-score” value: -0.252 for the first, -0.0138 for the second.

First: GTTCGGCA
Second: ATCAGTTA
The “PBM E-score” value of the first is higher: 0.054 for the first, -0.0345 for the second.

Compared with CTTTTCTA, ACGATGAT is higher in “PBM E-score” value: -0.229 for the first, -0.158 for the second.

First: AGGTGGAT
Second: AGTAGTGC
The “PBM E-score” value of the first is lower: -0.223 for the first, 0.115 for the second.

Going from GCCTAAAC to ATGGCCGA, the “PBM E-score” value rises from -0.193 to 0.152.

First: GGCGGCAA
Second: TCGGGTAA
The “PBM E-score” value of the first is higher: 0.168 for the first, 0.0953 for the second.

First: CGGCCTGC
Second: AGCGCGTG
The “PBM E-score” value of the first is higher: 0.07 for the first, -0.094 for the second.

Compared with GCGGAGAC, ATTCCACG is lower in “PBM E-score” value: 0.336 for the first, 0.155 for the second.

Compared with TGACACCA, CGGAAGCC is higher in “PBM E-score” value: -0.193 for the first, 0.416 for the second.

First: GCAACATA
Second: AGTGGCGA
The “PBM E-score” value of the first is lower: -0.216 for the first, -0.0624 for the second.

First: GTGTCTGA
Second: GCGAAGAA
The “PBM E-score” value of the first is lower: -0.0386 for the first, -0.00855 for the second.

Going from GTGTCCTA to CCACCTCC, the “PBM E-score” value falls from 0.0921 to -0.0783.

Compared with ACTTCCGA, CGTTCAGC is lower in “PBM E-score” value: 0.355 for the first, -0.00419 for the second.

Going from GAATACGC to ACCGTCAA, the “PBM E-score” value falls from 0.064 to -0.00477.

Compared with AGGCCCAC, AAGCCGAC is higher in “PBM E-score” value: -0.285 for the first, 0.0308 for the second.

Compared with AACTTGGA, GGGATGAC is higher in “PBM E-score” value: -0.0529 for the first, 0.137 for the second.

Compared with CGTCATAG, GAACATAA is higher in “PBM E-score” value: -0.0576 for the first, -0.00765 for the second.

Going from TCACCGCA to CCAGCTGG, the “PBM E-score” value rises from -0.163 to 0.0442.

First: AACCGCGA
Second: AGGGCGAC
The “PBM E-score” value of the first is higher: 0.277 for the first, -0.011 for the second.

Compared with CCTGCGAG, GCTAGACA is lower in “PBM E-score” value: -0.0349 for the first, -0.0898 for the second.

Compared with GGATAGAA, CGGCTGTA is lower in “PBM E-score” value: 0.0776 for the first, 0.0401 for the second.

Compared with CTCCTGAA, AACCGAAG is higher in “PBM E-score” value: -0.0454 for the first, 0.0751 for the second.

Going from AGACGTAA to AAGATACC, the “PBM E-score” value rises from -0.221 to 0.181.

Going from GCCCTGCA to CGGTTACA, the “PBM E-score” value rises from -0.0309 to 0.196.

First: CATTACCC
Second: CGTGATAG
The “PBM E-score” value of the first is higher: 0.112 for the first, -0.0638 for the second.

Going from CATCGCCC to CTAAACTA, the “PBM E-score” value falls from -0.00877 to -0.14.

Compared with CGCCCAAG, TCGAATAA is lower in “PBM E-score” value: -0.143 for the first, -0.151 for the second.

First: CCAGACAC
Second: CTCGGTCC
The “PBM E-score” value of the first is lower: -0.104 for the first, 0.112 for the second.

First: AAGGGCGT
Second: AGGTAACG
The “PBM E-score” value of the first is lower: -0.102 for the first, -0.00723 for the second.

Compared with CATTTTCG, CACTCTCG is lower in “PBM E-score” value: 0.0924 for the first, -0.00555 for the second.

Compared with ACAGGCTA, TGATTAAA is higher in “PBM E-score” value: -0.251 for the first, -0.00687 for the second.

Going from ACCGAGAT to ATTTTAAG, the “PBM E-score” value falls from 0.207 to -0.146.

Going from AAGTAATC to CCATGCCA, the “PBM E-score” value falls from 0.0886 to -0.075.

Going from AGTGAAAG to CAAGGTCA, the “PBM E-score” value falls from -0.073 to -0.294.

Compared with ATTCTCGC, ATGTGTGA is higher in “PBM E-score” value: -0.23 for the first, -0.101 for the second.
